Measured values: a collection of fitness landscapes (doi:10.1016/j.celrep.2020.107928)
Over roughly 81,000 sequences, “one-hybrid fitness for binding NBS DNA” has its median near -0.1; the highest 2% begin near 0.36. The list shows a part of the results.

B1: Caulobacter ParB omega fusion; a variant is named by its letters at X, in order, B8GW30 (parent)
chain: MESVVVGEPGMSEGRRGLGRGLSALLGEVDAAPAQAPGEQLGGSREAPIEILQRNPDQPRRTFREEDLEDLSNSIREKGVLQPILVRPSPDTAGEYQIVAGERAWRAAQRAGLKTVPIMVRELDDLAVLEIGIIENVQRADLNVLEEALSYKVLMEKFERTQENIAQTIGKSXSHVANXMRLLXLPDEVQSYLVSGELTAXHARAIAAAADPVALAKQIIEGGLSVRETEALARKAPNLSAGKSKGGRPPRVKDTDTQALESDLSSVLGLDVSIDHRGSTGTLTITYATLEQLDDLCNRLTRGI

Variants of: B1
Experiment: one-hybrid fitness for binding NBS DNA (the Noc-binding site; scaled: cognate 1, non-cognate 0); higher = stronger binding
Settings: with NBS DNA site
How it was run: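 On M9-minus-histidine containing 0.1 mM IPTG and 5 mM 3-AT, E. coli USO cells with a HIS3 reporter, site 19 bp from the promoter, grew 48 hours at 37°C to select Caulobacter ParB libraries randomised at four specificity codons. Plasmids from before and after were Illumina-sequenced, with three replicate libraries pooled and variants under 10 reads left out. Fitness is the log change in variant-to-wild-type read ratio, rescaled against cognate and non-cognate.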

| Variant | one-hybrid fitness for binding NBS DNA |
| --- | --- |
| QVMR | 0.312 |
| PRTW | ≤ 0.2 |
| IFTF | ≤ 0.2 |
| WPMG | ≤ 0.2 |
| SKGG | ≤ 0.2 |
| VPNP | ≤ 0.2 |
| RRSM | 0.311 |
| RMIE | ≤ 0.2 |
| KCNS | ≤ 0.2 |
| AAAF | ≤ 0.2 |
| RREP | ≤ 0.2 |
| GRYS | ≤ 0.2 |
| VMQK | ≤ 0.2 |
| FFSS | ≤ 0.2 |
| HPDL | ≤ 0.2 |
| DHQG | ≤ 0.2 |
| RNSV | ≤ 0.2 |
| PYTG | ≤ 0.2 |
| HFNS | ≤ 0.2 |
| GVDV | ≤ 0.2 |
| CHWG | ≤ 0.2 |
| TDTL | ≤ 0.2 |
| RTAE | ≤ 0.2 |
| DCSG | ≤ 0.2 |
| RCEE | ≤ 0.2 |
| QGMG | ≤ 0.2 |

| Variant | one-hybrid fitness for binding NBS DNA |
| --- | --- |
| WGRS | ≤ 0.2 |
| VMPL | ≤ 0.2 |
| SSCC | ≤ 0.2 |
| KDNS | ≤ 0.2 |
| RSYW | ≤ 0.2 |
| WTSW | ≤ 0.2 |
| NTPT | ≤ 0.2 |
| TTVE | ≤ 0.2 |
| SHSP | ≤ 0.2 |
| ICLG | ≤ 0.2 |
| ESNC | ≤ 0.2 |
| SYEE | ≤ 0.2 |
| DCVR | ≤ 0.2 |
| AKEL | ≤ 0.2 |
| AQWG | ≤ 0.2 |
| LEVD | ≤ 0.2 |
| DYTY | ≤ 0.2 |
| RMQF | ≤ 0.2 |
| SDER | ≤ 0.2 |
| ILSM | ≤ 0.2 |
| LAKM | ≤ 0.2 |
| TPKS | ≤ 0.2 |
| PCRK | ≤ 0.2 |
| TACD | ≤ 0.2 |
| HWNF | ≤ 0.2 |
| QACE | ≤ 0.2 |

| Variant | one-hybrid fitness for binding NBS DNA |
| --- | --- |
| LVMT | ≤ 0.2 |
| SCFG | ≤ 0.2 |
| FGQG | ≤ 0.2 |
| FSKV | ≤ 0.2 |
| VAEV | ≤ 0.2 |
| DECT | ≤ 0.2 |
| RAEF | ≤ 0.2 |
| HGRC | ≤ 0.2 |
| KRRF | ≤ 0.2 |
| WCSR | ≤ 0.2 |
| AYGD | ≤ 0.2 |
| TESN | ≤ 0.2 |
| TRNC | ≤ 0.2 |
| DGRA | ≤ 0.2 |
| MMFL | ≤ 0.2 |
| LKLW | ≤ 0.2 |
| SAHF | ≤ 0.2 |
| VVMG | ≤ 0.2 |
| PMTP | ≤ 0.2 |
| CKTY | ≤ 0.2 |
| WRWR | ≤ 0.2 |
| IHDT | ≤ 0.2 |
| PFTE | ≤ 0.2 |
| THAF | ≤ 0.2 |
